Assay results reported in PubChem BioAssay AID2060508 (Molecular Pharmacology Branch, DTP, NCI, 2025).
The source holds more than one record for some entries. They are shown here; other results are not. The source may hold further records. Values given together are repeats in other runs, samples, wells, individuals or studies.

System: 454973-116-R2-J3-PDC spheroids, viability, % test/control
Experiment: Anticancer human tumor 454973-116-R2-J3-PDC patient-derived pancreatic carcinoma cell line growth inhibition [GQUAD]
Conditions: spheroids with HUVEC and MSC
Text: DNA G-quadruplex Stabilizer Agents in Combinations in Complex Spheroids
A high-throughput screen of multi-cell type tumor spheroids was designed to identify active combinations of DNA G-quadruplex stabilizer agents and targeted small molecules. Complex spheroids include a stromal component modeled by human endothelial cells (HUVEC) and fibroblasts modeled by human mesenchymal stem cells (MSCs). The concentration ranges selected for each drug and investigational agent were based upon clinically achievable concentrations if the clinical Cmax of the agent was known.
Compounds. […] If the clinical Cmax for an agent had not been determined, the highest concentration tested was 10 microM. […]
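Also: spheroids exposed to compounds for seven days.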
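For viability, T/C in this document: 100% = DMSO vehicle control viability.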

Cc1cnc(CNC(=O)c2c(=O)c3ccc(N4CCCN(C)CC4)nc3n3c2sc2ccccc23)cn1
viability, T/C (compound alone 10 µM, stronger effect = lower value): 38.7, 50.6, 24.2, 49.7, 0.72, 31.4, 35.6, 0.32, 10.3, 26.8, 33.5, 0.2%
IC50 (compound alone, run of 04/16/2024): 6.43 µM, > 10 µM, 4.5 µM, 3.83 µM, 3.12 µM, 4.16 µM, 3.48 µM, 4.45 µM, 4.1 µM, 4.66 µM, 3.77 µM
